The list shows a part of the results.
Key:
Experiment in all cases: glycan array binding signal (z-score within array); higher = stronger binding
Conditions in all cases: glycan notation: IUPAC condensed, linker removed
GlcNAc(b1-6)GalNAc = target: GlcNAc(b1-6)GalNAc
In short: (§1)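 Columns mapping to the same glycan were averaged after glycan names were converted to IUPAC-condensed notation. The data come from 3228 arrays in the Consortium for Functional Glycomics database, limited to those with an available protein sequence. Binding is reported as a within-array Z-score averaged across arrays of one protein sequence and across linkers.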

GlcNAc3Prop(b1-4)GlcNAc = target: GlcNAc3Prop(b1-4)GlcNAc
In short: as §1

[1] = target: GlcNAc6S(b1-3)Gal(b1-4)GlcNAc
In short: as §1

Kdn(a2-3)Gal(b1-3)GalNAc = target: Kdn(a2-3)Gal(b1-3)GalNAc
In short: as §1

Kdn(a2-3)Gal(b1-3)GlcNAc = target: Kdn(a2-3)Gal(b1-3)GlcNAc
In short: as §1

Kdn(a2-3)Gal(b1-4)Glc = target: Kdn(a2-3)Gal(b1-4)Glc
In short: as §1

Kdn(a2-3)Gal(b1-4)GlcNAc = target: Kdn(a2-3)Gal(b1-4)GlcNAc
In short: as §1

[2] = target: Kdn(a2-3)Gal(b1-4)[Fuc(a1-3)]GlcNAc
In short: as §1

Kdn(a2-6)Gal(b1-4)GlcNAc = target: Kdn(a2-6)Gal(b1-4)GlcNAc
In short: as §1

[3] = target: Man(a1-2)Man(a1-2)Man(a1-3)Man
In short: as §1

[4] = target: Man(a1-2)Man(a1-2)Man(a1-6)[Man(a1-3)]Man
In short: as §1

Man(a1-2)Man(a1-3)Man = target: Man(a1-2)Man(a1-3)Man
In short: as §1

[5] = target: Man(a1-2)Man(a1-3)[Man(a1-2)Man(a1-6)]Man
In short: as §1

[6] = target: Man(a1-2)Man(a1-3)[Man(a1-2)Man(a1-6)]Man(a1-6)[Man(a1-2)Man(a1-2)Man(a1-3)]Man
In short: as §1

[7] = target: Man(a1-2)Man(a1-3)[Man(a1-2)Man(a1-6)]Man(a1-6)[Man(a1-2)Man(a1-2)Man(a1-3)]Man(b1-4)GlcNAc(b1-4)GlcNAc
In short: as §1

[8] = target: Man(a1-2)Man(a1-3)[Man(a1-6)]Man(a1-6)[Man(a1-2)Man(a1-3)]Man(b1-4)GlcNAc(b1-4)GlcNAc
In short: as §1

[9] = target: Man(a1-2)Man(a1-6)[Man(a1-3)]Man(a1-6)[Man(a1-2)Man(a1-2)Man(a1-3)]Man
In short: as §1

[10] = target: Man(a1-2)Man(a1-6)[Man(a1-3)]Man(a1-6)[Man(a1-2)Man(a1-2)Man(a1-3)]Man(b1-4)GlcNAc(b1-4)GlcNAc
In short: as §1

Man(a1-3)[Man(a1-6)]Man = target: Man(a1-3)[Man(a1-6)]Man
In short: as §1

[11] = target: Man(a1-3)[Man(a1-6)]Man(a1-6)[Man(a1-2)Man(a1-3)]Man(b1-4)GlcNAc(b1-4)GlcNAc
In short: as §1

[12] = target: Man(a1-3)[Man(a1-6)]Man(a1-6)[Man(a1-3)]Man
In short: as §1

[13] = target: Man(a1-3)[Man(a1-6)]Man(a1-6)[Man(a1-3)]Man(b1-4)GlcNAc(b1-4)GlcNAc
In short: as §1

[14] = target: Man(a1-3)[Man(a1-6)]Man(b1-4)GlcNAc(b1-4)GlcNAc
In short: as §1

Man(a1-6)Man = target: Man(a1-6)Man
In short: as §1

Man(b1-4)GlcNAc = target: Man(b1-4)GlcNAc
In short: as §1

Neu5Ac(a2-3)Gal = target: Neu5Ac(a2-3)Gal
In short: as §1

[15] = target: Neu5Ac(a2-3)Gal(b1-3)GalNAc
In short: as §1

[16] = target: Neu5Ac(a2-3)Gal(b1-3)GalNAc(b1-3)Gal(a1-4)Gal(b1-4)Glc
In short: as §1

[17] = target: Neu5Ac(a2-3)Gal(b1-3)GalNAc(b1-4)[Neu5Ac(a2-3)]Gal(b1-4)Glc
In short: as §1

[18] = target: Neu5Ac(a2-3)Gal(b1-3)GalNAc(b1-4)[Neu5Ac(a2-8)Neu5Ac(a2-3)]Gal(b1-4)Glc
In short: as §1

[19] = target: Neu5Ac(a2-3)Gal(b1-3)GalNAc6S
In short: as §1

[20] = target: Neu5Ac(a2-3)Gal(b1-3)GlcNAc
In short: as §1

[21] = target: Neu5Ac(a2-3)Gal(b1-3)GlcNAc(b1-3)Gal(b1-3)GlcNAc
In short: as §1

[22] = target: Neu5Ac(a2-3)Gal(b1-3)GlcNAc(b1-3)Gal(b1-4)GlcNAc
In short: as §1

[23] = target: Neu5Ac(a2-3)Gal(b1-3)GlcNAc(b1-3)GalNAc
In short: as §1

[24] = target: Neu5Ac(a2-3)Gal(b1-3)GlcNAc6S
In short: as §1

[25] = target: Neu5Ac(a2-3)Gal(b1-3)[Fuc(a1-4)]GlcNAc
In short: as §1

[26] = target: Neu5Ac(a2-3)Gal(b1-3)[Fuc(a1-4)]GlcNAc(b1-3)Gal(b1-3)[Fuc(a1-4)]GlcNAc
In short: as §1

[27] = target: Neu5Ac(a2-3)Gal(b1-3)[Fuc(a1-4)]GlcNAc(b1-3)Gal(b1-4)[Fuc(a1-3)]GlcNAc
In short: as §1

[28] = target: Neu5Ac(a2-3)Gal(b1-3)[Neu5Ac(a2-3)Gal(b1-4)]GlcNAc
In short: as §1

[29] = target: Neu5Ac(a2-3)Gal(b1-3)[Neu5Ac(a2-6)]GalNAc
In short: as §1

Neu5Ac(a2-3)Gal(b1-4)Glc = target: Neu5Ac(a2-3)Gal(b1-4)Glc
In short: as §1

[30] = target: Neu5Ac(a2-3)Gal(b1-4)GlcNAc
In short: as §1

[31] = target: Neu5Ac(a2-3)Gal(b1-4)GlcNAc(b1-2)Man(a1-3)[GlcNAc(b1-2)Man(b1-4)GlcNAc(b1-2)Man(a1-6)]Man(b1-4)GlcNAc(b1-4)GlcNAc
In short: as §1

[32] = target: Neu5Ac(a2-3)Gal(b1-4)GlcNAc(b1-2)Man(a1-3)[Neu5Ac(a2-6)Gal(b1-4)GlcNAc(b1-2)Man(a1-6)]Man(b1-4)GlcNAc(b1-4)GlcNAc
In short: as §1

B1: RS2L (Ralstonia solanacearum), B5RXL5_RALSO (protein)
chain: MAQQGVFTLPANTSFGVTAFANAANTQTIQVLVDNVVKATFTGSGTSDKLLGSQVLNSGSGAIKIQVSVNGKPSDLVSNQTILANKLNFAMVGSEDGTDNDYNDGIAVLNWPLG
- glycan array binding signal (z-score) (GlcNAc(b1-6)GalNAc): -0.245
- glycan array binding signal (z-score) (GlcNAc3Prop(b1-4)GlcNAc): -0.254
- glycan array binding signal (z-score) [1]: -0.246
- glycan array binding signal (z-score) (Kdn(a2-3)Gal(b1-3)GalNAc): -0.218
- glycan array binding signal (z-score) (Kdn(a2-3)Gal(b1-3)GlcNAc): -0.239
- glycan array binding signal (z-score) (Kdn(a2-3)Gal(b1-4)Glc): -0.242
- glycan array binding signal (z-score) (Kdn(a2-3)Gal(b1-4)GlcNAc): -0.25
- glycan array binding signal (z-score) [2]: -0.237
- glycan array binding signal (z-score) (Kdn(a2-6)Gal(b1-4)GlcNAc): -0.251
- glycan array binding signal (z-score) [3]: 1.84
- glycan array binding signal (z-score) [4]: 6.32
- glycan array binding signal (z-score) (Man(a1-2)Man(a1-3)Man): 1.42
- glycan array binding signal (z-score) [5]: 3.34
- glycan array binding signal (z-score) [6]: 6.92
- glycan array binding signal (z-score) [7]: 3.42
- glycan array binding signal (z-score) [8]: 3.58
- glycan array binding signal (z-score) [9]: 5.7
- glycan array binding signal (z-score) [10]: 5.97
- glycan array binding signal (z-score) (Man(a1-3)[Man(a1-6)]Man): 7.32
- glycan array binding signal (z-score) [11]: 6.99
- glycan array binding signal (z-score) [12]: 5.11
- glycan array binding signal (z-score) [13]: 5.42
- glycan array binding signal (z-score) [14]: 3.86
- glycan array binding signal (z-score) (Man(a1-6)Man): 0.413
- glycan array binding signal (z-score) (Man(b1-4)GlcNAc): -0.242
- glycan array binding signal (z-score) (Neu5Ac(a2-3)Gal): -0.251
- glycan array binding signal (z-score) [15]: -0.239
- glycan array binding signal (z-score) [16]: -0.25
- glycan array binding signal (z-score) [17]: -0.252
- glycan array binding signal (z-score) [18]: -0.217
- glycan array binding signal (z-score) [19]: -0.252
- glycan array binding signal (z-score) [20]: -0.247
- glycan array binding signal (z-score) [21]: -0.244
- glycan array binding signal (z-score) [22]: -0.226
- glycan array binding signal (z-score) [23]: -0.235
- glycan array binding signal (z-score) [24]: -0.246
- glycan array binding signal (z-score) [25]: -0.188
- glycan array binding signal (z-score) [26]: 0.105
- glycan array binding signal (z-score) [27]: -0.023
- glycan array binding signal (z-score) [28]: -0.251
- glycan array binding signal (z-score) [29]: -0.13
- glycan array binding signal (z-score) (Neu5Ac(a2-3)Gal(b1-4)Glc): -0.249
- glycan array binding signal (z-score) [30]: -0.243
- glycan array binding signal (z-score) [31]: -0.245
- glycan array binding signal (z-score) [32]: -0.244

From the supplement of paper PMC8728848
